Laboratory results reported in the RNAGym collection of RNA variant scans (doi:10.7554/elife.90254).
Read counts are not given, so values of variants with three or more changes are uncertain.

B1: OR4K15 (parent)
chain: GUUAACGGUCAUAGGCCAUGGAAACUAGGAGCACCAUUUCGCUGCCAGUGAAGAAAUGAACAAAGAAAAUCUGGGCCAGGCAGGCAUCAAAAGAAAUAGUCUUGCGCUCAACCAGAAAGUCUGUAAUCAUUUUAAGGGUA

Variants of: B1
Assay: self-cleavage, relative activity (ratio to wild type); higher = more cleavage; in vitro, sequencing; the parent is a self-cleaving ribozyme

Variant	self-cleavage
U26C A69U A78G C88U	0.18
A55G A64G A78C	0.19
G29U U49A A110G A116G A140G	0.06
U49C A64G A67G U102C U103G A110G A117G A135G	0
U19C C42A A54G U87C U100C A140G	1.88
A33G C34U A59G	2.12
A30U U103C U120C	0.25
G7A G74A A118U	0.11
A56C A78U A91U U120A U122C	0.14
A78G A86C U133C	0.2
A22G U38A A52G A69G A91G A96G A140G	0.58
U19C A23G A66C A111U	0.28
U43C U87C A118G	0.34
A5G A36G U39A A90G	0.74
A13G A63G U102C	0.8
A55G A63G A91G U122C	0.71
A51G U72A A78U	0.35
U26A C77U A116G	1.38
A116G U122C U124A	0.47
A78G A111G A140G	0.02
A55G A63G U130C	1.67
U19A A62G A67U	1.75
A78G U102C A129G	0.23
U2G G15C A30G A95G	1.49

Variant	self-cleavage
A18G U102C A114U	0.18
A5G A86G A111C	0.06
U49A A89G U97C	1.22
A27G U49C C61U A67G A118G	0.32
A27U A55G U102A U139C	0.64
A52G A55G A117G U122C	0.66
G14A A62G A114U A116G A118G	0.01
G8A A30G C71U U131C	0.46
A33G U43A A114U	0.08
A5G U26C A95G	2.22
U39C C40U A63G U122C U132A	1.03
A60G U120G U127C A129C U131C	0.59
U57C A78U U122C	0.15
U38C A92G U130C	1.33
A11G A23G A59G	0.68
U9C A18U A22G U102A	0.87
A22G A54G U57C	0.92
A24G A51U A92G A94G A95G	1.21
A86U A116G A117C	0.32
A11G U38C U49G U127A	1.27
A5G A18G A54G U87C A111U U131C	0.03
U3C U9A A33G A90G A114U	0.05
A13G A94U A96U	0.36
A56G C109A U130C	0.28

Variant	self-cleavage
A67U A68G A134G	2.2
U39C A56G A60G A68G A111G A116G	0
A22G A64G A114G	0.7
A24G A67G U103C	0.54
A18U U26A A63G A134G	0.25
A86C A126G A129U	0.35
A62U C112A U132G	0.01
A13G A47U A92G A94G	0.8
U9C A56G A59U	0.91
U12C A51G A94G	1.3
U9C A56U U57C	1.37
A60G A67G A96U A117G A118G A135G U139A	0.97
A13G G14A U108A U130C	0.02
A36C U103A U132C	0.62
A23G U39C A51G U131C	0.53
U9C A60G U87C	0.88
C6U U26C U38C	1.37
U37C A59G G73A U130C	0.15
A47U A52G A54G U100C	1.55
A89G A114G U122C	0.12
A11G A54G G75A A116U	0.01
A4G G7U A89G A135G	1.54
A24U U39C U72A U132A	0.21
A18U A63G U122A	1.02

Variant	self-cleavage
A30G C34U A51C A55U A60U	1.03
A66G U70C U103A U127C	0.05
A52G A89U U127C U139A	0.97
A27G A30G U37C A47U	0.67
A68G A98U A140U	1.85
U19A A62G U103C	1.03
U3C A52G A63G A78G U120A	0.18
A18G U38C A54G A67G A82G U97C	0.45
A33G U43C A94C U131C	0.31
A5C A68G A114G U120C U127C	0.11
A23U A62C U103C U139A	0.58
U19C A51U A66G A95G U130C	0.88
A64G A78G U100C A135G	0.18
U37C U127C U133C	0.84
U26G A51G A82U C105U	0.09
A56G A64G A69U A78G U97C U108G U120C U132C A135C	0
A96U U97A A110U A118U	0.38
A51G G80U A111G	0.01
U9C A11G U39C A111G A116G	0.04
A23G C32U A52G	0.56
A69G U102A A118G A126G	0.41
A5U C61A G79U A116G A117G	0.08
A47C U100C U103G	0.01
U87A A114U A140G	0.07

Variant	self-cleavage
U43C A91G U102C	1.66
A23G C25G A51G A82G A92G	0.36
A24G A95G U102C A111G	0.05
U37C U72C U103A	0.07
A24G A55G U122C	0.9
A36U A111G U122C	0
A22G A24G A62G A82G A86G U87A A94G	0
A95G U103C U130C	0.38
A47G U108G A116G	0.03
U2G U19C A95G C121U	2.09
U49A A69G U87C U100C G104C U108C A117G A118G	0
A18G C34A A111U	0.24
U9C A51G U102C	1.78
U2C A78U A94U	0.66
U19C A33U A96G	1.42
C105U U120A U130C	0.01
A5G A11G A24U U132C	1.16
A24G U49C A116U A125G	0.06
A33G U43A U127C A140G	0.42
A13G C34U A54G U103A	0.85
A59G U72A U102G	0.12
A54U A60G A68G A117G	2.56
A47G A89U U100C A111G	0.02
A54G A92G U108C A135U	0.01

Variant	self-cleavage
A66G A92G U108C	0.02
U2C U12A A52C A60U A64G A90G A96G	0.5
A24G A27U U37C C105A A110G	0.05
U19C A24G A66G U108C U122A	0.02
A33G A78G U87A A92G U100C	0.1
U3C A56G G80A U122C	0.07
A36G A67G A114G	0.22
A33G A64G A94G	1.02
A47U U122C U132C	0.19
G7A A11U A22U A82G A90G	0.43
U12C U37C A54G A116G U120C U122C	0.1
A62U U100C A117G	2.97
U9C A24G U43G A64G	0.76
A63G A82U A96G U108C	0.05
U37C U70C A98G U108C	0.01
U43C A86G U103C	0.34
A18G U19C A118C G136U	0.85
U12C A30G U127C	1.11
U37C U108A U120A A135U	0
A24G A60G C101A	0.11
A4G G44A A63G A98G	0.69
A22G C113U U132C	0.04
U9A U43C A47C U103A A111G	0.02
U38C A55G U130A	1.56

Variant	self-cleavage
U9C A47G A52U A94U	1.27
A23G U37C A55G	1.66
A33G A59G U127A	1.5
A78G A82G U100A	0.05
A62G A92G U132C	1
G8A G28A A82U	0.23
G21A A47G A125G	0.68
A62U A116C U130C	0.08
U9C A30G A91G	1.32
A24G A33C A60G A78G A116G	0.27
U49C A54G A66G A90G C121U	1.45
A27G C35U A55G A64G A94G	0.73
A36G A56G U87G	0.48
A47C A62U A68G	1.32
A5G A30G A33G A55U	0.96
A59U U102C A111G U131C	0
A11G U103C A111G	0.01
A59G A96G U97C	1.24
A54G A86G A96G	1.67
A11G U43C A60G A69G A78U A82G A86U	0.17
G21A A59G U108A	0.02
U9C A96G A126G	1.69
A23G A54G A89G A94U G104A U130C	0.01
